Experimental data from ChEMBL document CHEMBL1201862, “PubChem BioAssay data set” (2004).

These molecules were tested on NCI-H322M (assay: NCI tumour cell line growth inhibition, 48 h).

Structure (SMILES)	GI50
Cc1nc2c(nc1C)-c1c(c3c(n1Cc1ccccc1)C(=O)CCC3)C(=O)C2=O	inactive: 17.1 µM
Oc1ccc2ccccc2c1CCc1c(O)ccc2ccccc12	inactive: 12.4 µM
CN(C)c1ccc(/C=C(/NC(=O)c2ccccc2)C(=O)Nc2ccccc2C(=O)O)cc1	inactive: > 100 µM
Cc1ccccc1-c1cc(=O)c2cc(C)c(C)c(C(=O)O)c2o1	inactive: > 100 µM
CC(=O)NC(Cc1ccccc1)C(=S)N1CCCC1 (stereo unspecified)	inactive: > 100 µM
N=C(N)c1ccc(/C=C/c2ccc(C(=N)N)cc2)cc1	inactive: > 100 µM
O=C1NC(Cc2ccc(O)cc2)C(=O)N2CCCC12 (stereo unspecified)	inactive: > 100 µM
CCOC(=O)c1nc2cc(C(F)(F)F)ccc2nc1Oc1ccc(OC)cc1	inactive: > 100 µM
Cc1[nH]c(/C=C2\C(=O)Nc3ccccc32)c(C)c1CCC(=O)O [ORANTINIB]	inactive: 30.1 µM
N=C(CC/C(N)=N/O)NO	inactive: > 100 µM
CC(C)(C)c1ccnc(/N=C2\N/C(=N\c3cc(C(C)(C)C)ccn3)c3ccccc32)c1	inactive: 18.5 µM
N#C/C(=C1\N=C(c2ccccc2O)Oc2ccccc21)c1ccc([N+](=O)[O-])cc1	inactive: > 100 µM
COC(=O)[C@@H]1C(=O)O[C@@H](c2ccc3c(c2)OCO3)[C@@H]1C(=O)OC.COC(=O)[C@H]1C(=O)O[C@@H](c2ccc3c(c2)OCO3)[C@@H]1C(=O)OC	inactive: > 100 µM
O=C1c2ccccc2C(=O)C12CCc1ccccc12	inactive: > 100 µM
Cc1ccc(C)n1-n1c(Cc2ccc(Cl)cc2)n[nH]c1=O	inactive: > 100 µM
CC1(C)CC[C@]2(C(=O)O)CC[C@]3(C)C(=CC[C@@H]4[C@@]5(C)CC[C@H](OC6OC(CO)C(O)C(O)C6O)C(C)(C)[C@@H]5CC[C@]43C)[C@@H]2C1 (stereo partly specified)	inactive: 1.62 µM
CC(=O)C(C(=O)C(=O)Nc1cc(Cl)c(Cl)cc1Cl)c1csc(N)n1 (stereo unspecified)	inactive: > 100 µM
N#Cc1c(-c2ccccc2)cc(-c2cccs2)c(C#N)c1N	inactive: > 100 µM
COC(=O)[C@]12CCC(=O)N1[C@H](C(=O)O)Cc1c2[nH]c2ccccc12	inactive: > 100 µM
O=C1OC(c2ccc(O)cc2)(c2ccc(O)cc2)c2ccc(Cl)c3cccc1c23.O=C1OC(c2ccc(O)cc2)(c2ccc(O)cc2)c2cccc3c(Cl)ccc1c23	inactive: 4.98 µM
CC(=O)CC(=O)CCC(=O)Nc1cccc(C(F)(F)F)c1	inactive: > 100 µM
C1=CC(=NN=P(c2ccccc2)(c2ccccc2)c2ccccc2)C=C1	inactive: > 100 µM

Structure (SMILES)	GI50
O=C(O)CSC1=NC(=O)C2(NN1)c1ccccc1-c1ccccc12	inactive: > 10 µM
CCOC(=O)c1cc(=O)c2cccc3c2n1CCS3	inactive: > 100 µM
CN(C)CCCNC(=O)N/N=C/c1cccc([N+](=O)[O-])c1	inactive: > 100 µM
CCOP(=O)(OCC)/C(C#N)=C/c1[nH]cnc1C	inactive: > 100 µM
Cc1c(-c2ccccc2)c(C#N)c2nnn(-c3ccccc3)c(=O)n12	inactive: > 100 µM
CC(C)C(C/C=C1/CC(CO)(COC(=O)CC(C(C)C)C(C)C)OC1=O)C(C)C (stereo unspecified)	inactive: 11.2 µM
COc1cc(/C=C2\C(=O)N(Cc3ccccc3)C(c3ccccc3)S2(=O)=O)cc(OC)c1OC (stereo unspecified)	inactive: > 100 µM
Cc1ccc(Nc2c(C#N)[n+]([O-])c3cc(Cl)ccc3[n+]2[O-])cc1	inactive: > 24.4 µM
OCC(O)C(O)C(O)c1nn(-c2ccccc2)c2nc3cc(Cl)c(Cl)cc3nc12 (stereo unspecified)	inactive: > 100 µM
CCOC(=O)N1CCN(c2c(N)nc(C)nc2O)CC1	inactive: > 100 µM
O=C1/C(=C/c2ccc(Cl)cc2)COc2ccc(Br)cc21	inactive: > 100 µM
COc1ccc2[nH]c3c(O)c(-c4c(C)cc5c([nH]c6ccc(OC)cc65)c4O)c(C)cc3c2c1	inactive: 4.38 µM
NS(=O)(=O)c1ccc(/N=N/c2ccc(O)cc2)cc1	inactive: > 100 µM
O=C(/C=C/c1ccccc1)Oc1cccc(Br)c1	inactive: > 100 µM
O=C(NCCOC(=O)OCCNC(=O)NC1CCCCC1)NC1CCCCC1	inactive: > 100 µM
O=C(O)C1CCCCC1c1c2ccc(=O)cc-2oc2cc(O)ccc12 (stereo unspecified)	inactive: 30.2 µM
COc1ccccc1NC(=O)C1=C(C)NC(C)=C(C(=O)Nc2ccccc2OC)C1c1cccc2c1OCO2	inactive: > 100 µM
O=C(/C=C/c1ccc([N+](=O)[O-])cc1)c1nc2ccccc2[nH]1	inactive: > 100 µM
S=C(/N=C1/NCC(CN2CCN(c3ccccc3)CC2)O1)Nc1ccccc1 (stereo unspecified)	inactive: > 100 µM
O=S(=O)(O)c1ccc2c(/N=N/c3ccccc3)c(O)c(S(=O)(=O)O)cc2c1	inactive: > 100 µM
CN(C)Cc1cc(/N=N/c2ccc(Cl)cc2)cc(CN(C)C)c1O	inactive: 10.8 µM
O=c1[nH]nc(-c2ccccc2)n1/N=C\CC/C=N\n1c(-c2ccccc2)n[nH]c1=O	inactive: > 89.1 µM

Structure (SMILES)	GI50
O=Cc1ccc(-c2cccc([N+](=O)[O-])c2)s1	inactive: > 100 µM
CCCCCCCCCCC(O)C1CCC(C2CCC(C(O)CCCCC(O)CCCCCC(O)CC3=CC(C)OC3=O)O2)O1 (stereo unspecified)	inactive: > 25 µM
CCOC(=O)C(Cc1ccccc1)NC(=O)OC(C)(C)C (stereo unspecified)	inactive: > 100 µM
CC1=C(C)[C@@]2(C)O[C@@]2(C)O[C@@]2(C)O[C@@]12C	inactive: > 100 µM
Cc1ccc(C2(O)c3ccccc3C(=O)N(C)C2(O)c2ccc(C)cc2)cc1 (stereo unspecified)	inactive: > 100 µM
Cc1cn(C2CC(/[N+]([O-])=N\Nc3ccc([N+](=O)[O-])cc3)C(CO)O2)c(=O)[nH]c1=O (stereo unspecified)	inactive: 23.7 µM
Nc1nc(Sc2ccc([N+](=O)[O-])c3nonc23)c2nc[nH]c2n1	inactive: 6.11 µM
CC(=O)OCCCCn1cc(Cn2ccc(=O)n(Cc3cn(CCCCOC(C)=O)nn3)c2=O)nn1	inactive: > 100 µM
O=C1c2ccccc2C(=O)c2c1ccc1c3ccccc3n(Cc3ccccc3)c21	inactive: > 100 µM
COc1ccc(C2C3=C(N=C4SC(C(C)=O)=C(C)N42)c2ccccc2CC3)cc1 (stereo unspecified)	inactive: > 100 µM
COc1ccc2c(c1)[C@@]13CCN4CC5=CCO[C@H]6CC(=O)N2[C@H]1[C@H]6[C@H]5C[C@H]43	inactive: > 100 µM
CCCCCC(=O)OCCOCCOCCOCCOCCOCc1ccccc1	inactive: > 100 µM
Cc1n[n+](CC(=O)c2ccccc2)c2sc(N)nn12	inactive: > 100 µM
Cc1cccc(NC(=S)Nc2cccc(Cl)c2)n1	inactive: > 100 µM
N#CC1=C(N)N(/N=C/c2ccccc2)C(c2ccccc2)C1(C#N)C#N (stereo unspecified)	inactive: 18.1 µM
OCCN(CO)CO	inactive: > 100 µM
CC(=O)C(N1CCCCC1)C(O)(C(F)(F)F)C(F)(F)F (stereo unspecified)	inactive: > 100 µM
O=S1(=O)OCCOS(=O)(=O)C1C1c2ccccc2-c2ccccc21	inactive: 74.5 µM
COc1cc(-c2c3c([nH]c(=O)c2C#N)-c2cc([N+](=O)[O-])ccc2CCC3)cc(OC)c1OC	inactive: 29.8 µM
CCOC(=O)/C(O)=C(/C(=O)OC)c1ccc(Cl)cc1	inactive: > 100 µM
O=C1C(Cl)C(c2ccc(O)cc2)N1n1cnc2ccccc2c1=O (stereo unspecified)	inactive: > 100 µM
S=c1sc2c(s1)SC(c1ccccc1)CS2 (stereo unspecified)	inactive: > 100 µM

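Grown in 96-well plates, cells were treated for 48 hours with each compound at five concentrations. Insufficient inhibition: endpoint recorded as highest concentration tested. GI50 = concentration required for 50% inhibition of growth.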 The source made the active and inactive calls. Cut-off read from the data, not from the text of the source: active = GI50 up to about 1.1 µM and inactive = higher.
